Experimental data published in the RNAGym collection of RNA variant scans (doi:10.1093/nar/gkz1192).
Read counts are not given, so values of variants with three or more changes are uncertain.

B1: CPEB3 Ribozyme (parent)
chain: UAACAGGGGGCCACAGCAGAAGCGUUCACGUCGCAGCCCCUGUCAGAUUCUGGUGAAUCUGCGAAUUCUGCUGUAUAUCUC

Variants of: B1
Experiment: self-cleavage, relative activity (ratio to wild type); higher = more cleavage; in vitro, sequencing
Summary of the method: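 Relative activity compares each variant's cleaved/total read fraction with that of the unmutated ribozyme. To get these fractions, barcoded CPEB3 ribozyme libraries from rounds of error-prone PCR were transcribed with T7 RNA polymerase for 5 hours at 37°C and then given 15 min of DNase I treatment before EDTA was added. The RNAs were reverse transcribed with template switching and sequenced on Illumina, and DNA sequencing linked barcodes to variants. A minimum of 5 reads applied, and three batches were averaged.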

Variant	self-cleavage
A28G U43C A56U	0.11
A28U A35U U69A A75G	0.08
A28G U41A C50U	0.49
A28U A35U U48C U69C	0.1
A28G U60C U76C	0.38
A28U A35G A77G	1.18
A28U A57G U58C	0.17
A28G U48C C62G	0.12
A28G U51A A65G	0.18
A28G U51C U60C U69C	0
A28G G36A U54C A57G U80C	0.06
A28G U43A C62G U67C	0.09
A28U C40U A56G	0.31
A28G G36A U49A U54A	0.13
A28G U49C A65U	0.13
A28G U49C A65G	0.12
A28G U54A U72A	0.35
A28G U48C U69C U74C	0.18
A28U A35G G63C A64G U80C	1.12
A28G U43C U72G G73C	0.59
A28G G33A U48C A57U	0.35

Variant	self-cleavage
A28G U54C U60A U69C U72C	0.17
A28G U51C U67G	0.09
A28G G36U U78A	0.13
A28G U31C A35U	0.16
A28U A57G U74C	1.13
A28G U31C A45U U66A	0.04
A28G U51A C81U	0.42
A28G U41G U43C A45G U78C	0.45
A28U G63A A64G	0.42
A28U A35G U41A U54A	0.19
A28U G46A A64U	0.19
A28U C34U U67C	0.11
A28G U41A A57G U74C A75U	0.14
A28G U43A U66C	0.63
A28G U51C A64G U78C	0.35
A28G U72C U74C A75G	0.38
A28U C39A A57C	0.09
A28G G52A U67C	0.4
A28U A35G A65G U66C	0.31
A28G U49C U72A	0.1
A28G G36A U54A	0.14

Variant	self-cleavage
A28G U31A U69A U74C	0.19
A28G U41A A57G U58A	0.2
A28G U31C U58C G70U U72C	0.08
A28G U69C U72C	0.13
A28U G46A U72A	0.11
A28G U49C U78C	0.1
A28U G36U A47G	0.39
A28G U41C A57G U74A	0.5
A28G G36C A56G	0.17
A28G U48C U67A A75U	0.19
A28G G53A U69C	0.28
A28G U72C U74A A75C C79U	1.09
A28G U48C U54C	0.21
A28G U31C A35G U54A U69A	0.41
A28U A57G U80C	0.74
A28G U31A U41C U49C A65G U80A	0.09
A28U A56G U76A	0.66
A28U A45G U80C	0.82
A28U C38A A57G G63A A77G U78C	0.07
A28G U41C U49C A75G	0.17
A28G U51A G52C U60C U69A	0.26

Variant	self-cleavage
A28G U66A U78C	0.19
A28G G42A G46A U51A A56G G73C	0.14
A28G U31G A64G U74C	0.25
A28G U41C U67C	0.15
A28G U31C A56G	0.23
A28G U58A C59G U78C	0.41
A28G U31A U78A	0.33
A28U A65G U69C U74A	0.24
A28U A57G U78C	0.41
A28G U67C U76A U80C	0.19
A28U C32U A64U	0.1
A28U C40U U74A U78C	0.59
A28G U69C U78A	0.14
A28G U41C A77U	0.66
A28U A47G A57U C79U	0.12
A28G G42U U43A U48C U60A	0.17
A28G U31A U74C	0.57
A28G G63U A64G U78A	0.38
A28G U41C G55U	0.65
A28U C29U A75U	0.43
A28G U60A A65G U67G	0.06
